# In the supplement of paper PMC8728848:
# This is one part of the list.
# B1: Langerin K313I (Homo sapiens), Q9UJ71 (protein)
# chain: STLNAQIPELKSDLEKASALNTKIRALQGSLENMSKLLKRQNDILQVVSQGWKYFKGNFYYFSLIPKTWYSAEQFCVSRNSHLTSVTSESEQEFLYKTAGGLIYWIGLTKAGMEGDWSWVDDTPFNKVQSARFWIPGEPNNAGNNEHCGNIKAPSLQAWNDAPCDITFLFICKRPYVPSEP
# What was measured:
# Experiment in all cases: glycan array binding signal (z-score within array); higher = stronger binding
# Details in all cases: glycan notation: IUPAC condensed, linker removed
# [1] = target: Gal(b1-3)GlcNAc(b1-2)Man(a1-3)[Gal(b1-3)GlcNAc(b1-2)Man(a1-6)]Man(b1-4)GlcNAc(b1-4)[Fuc(a1-6)]GlcNAc
# How it was run: (§1)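 The Consortium for Functional Glycomics database supplied 3228 glycan arrays, of which those lacking an available protein sequence were dropped. The binding signal, a within-array Z-score, was averaged across arrays of the same protein sequence and across linkers. Negative scores can be read as non-binding.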
# [2] = target: Gal(b1-3)GlcNAc(b1-2)Man(a1-3)[GlcNAc(b1-4)][Gal(b1-3)GlcNAc(b1-2)Man(a1-6)]Man(b1-4)GlcNAc(b1-4)GlcNAc
# How it was run: as §1
# [3] = target: Gal(b1-3)GlcNAc(b1-2)[Gal(b1-3)GlcNAc(b1-6)]Man(a1-6)[Gal(b1-3)GlcNAc(b1-2)Man(a1-3)]Man(b1-4)GlcNAc(b1-4)GlcNAc
# How it was run: as §1
# [4] = target: Gal(b1-3)GlcNAc(b1-3)Gal(b1-3)GlcNAc
# How it was run: as §1
# [5] = target: Gal(b1-3)GlcNAc(b1-3)Gal(b1-4)Glc
# How it was run: as §1
# [6] = target: Gal(b1-3)GlcNAc(b1-3)Gal(b1-4)GlcNAc
# How it was run: as §1
# [7] = target: Gal(b1-3)GlcNAc(b1-3)Gal(b1-4)GlcNAc(b1-2)Man(a1-3)[Gal(b1-3)GlcNAc(b1-3)Gal(b1-4)GlcNAc(b1-2)Man(a1-6)]Man(b1-4)GlcNAc(b1-4)GlcNAc
# How it was run: as §1
# [8] = target: Gal(b1-3)GlcNAc(b1-3)Gal(b1-4)GlcNAc(b1-2)[Gal(b1-3)GlcNAc(b1-3)Gal(b1-4)GlcNAc(b1-6)]Man(a1-6)[Gal(b1-3)GlcNAc(b1-3)Gal(b1-4)GlcNAc(b1-2)Man(a1-3)]Man(b1-4)GlcNAc(b1-4)[Fuc(a1-6)]GlcNAc
# How it was run: as §1
# [9] = target: Gal(b1-3)GlcNAc(b1-3)Gal(b1-4)GlcNAc(b1-3)Gal(b1-4)GlcNAc(b1-2)[Gal(b1-3)GlcNAc(b1-3)Gal(b1-4)GlcNAc(b1-3)Gal(b1-4)GlcNAc(b1-6)]Man(a1-6)[Gal(b1-3)GlcNAc(b1-3)Gal(b1-4)GlcNAc(b1-3)Gal(b1-4)GlcNAc(b1-2)Man(a1-3)]Man(b1-4)GlcNAc(b1-4)[Fuc(a1-6)]GlcNAc
# How it was run: as §1
# [10] = target: Gal(b1-3)GlcNAc(b1-3)Gal(b1-4)GlcNAc(b1-6)[Gal(b1-3)GlcNAc(b1-3)]Gal(b1-4)Glc
# How it was run: as §1
# [11] = target: Gal(b1-3)GlcNAc(b1-3)Gal(b1-4)[Fuc(a1-3)]GlcNAc
# How it was run: as §1
# [12] = target: Gal(b1-3)GlcNAc(b1-3)Gal(b1-4)[Fuc(a1-3)]GlcNAc(b1-6)[Gal(b1-3)GlcNAc(b1-3)]Gal(b1-4)Glc
# How it was run: as §1
# [13] = target: Gal(b1-3)GlcNAc(b1-3)GalNAc
# How it was run: as §1
# [14] = target: Gal(b1-3)GlcNAc(b1-6)Gal(b1-4)GlcNAc
# How it was run: as §1
# [15] = target: Gal(b1-3)GlcNAc(b1-6)GalNAc
# How it was run: as §1
# [16] = target: Gal(b1-3)GlcNAc(b1-6)[Gal(b1-3)]GalNAc
# How it was run: as §1
# Gal(b1-3)GlcNAc6S = target: Gal(b1-3)GlcNAc6S
# How it was run: as §1
# [17] = target: Gal(b1-3)[Fuc(a1-4)]GlcNAc
# How it was run: as §1
# [18] = target: Gal(b1-3)[Fuc(a1-4)]GlcNAc(b1-2)Man
# How it was run: as §1
# [19] = target: Gal(b1-3)[Fuc(a1-4)]GlcNAc(b1-2)Man(a1-3)[Gal(b1-3)[Fuc(a1-4)]GlcNAc(b1-2)Man(a1-6)]Man(b1-4)GlcNAc(b1-4)[Fuc(a1-6)]GlcNAc
# How it was run: as §1
# [20] = target: Gal(b1-3)[Fuc(a1-4)]GlcNAc(b1-3)Gal(b1-3)[Fuc(a1-4)]GlcNAc
# How it was run: as §1
# [21] = target: Gal(b1-3)[Fuc(a1-4)]GlcNAc(b1-3)Gal(b1-4)[Fuc(a1-3)]GlcNAc
# How it was run: as §1
# [22] = target: Gal(b1-3)[Fuc(a1-4)]GlcNAc(b1-6)GalNAc
# How it was run: as §1
# [23] = target: Gal(b1-3)[GlcNAc(b1-6)]GalNAc
# How it was run: as §1
# [24] = target: Gal(b1-3)[Neu5Ac(a2-6)]GalNAc
# How it was run: as §1
# [25] = target: Gal(b1-3)[Neu5Ac(a2-6)]GlcNAc(b1-4)Gal(b1-4)Glc
# How it was run: as §1
# [26] = target: Gal(b1-3)[Neu5Ac(b2-6)]GalNAc
# How it was run: as §1
# Gal(b1-4)Gal = target: Gal(b1-4)Gal
# How it was run: as §1
# [27] = target: Gal(b1-4)GalNAc(a1-3)[Fuc(a1-2)]Gal(b1-4)GlcNAc
# How it was run: as §1
# [28] = target: Gal(b1-4)GalNAc(b1-3)[Fuc(a1-2)]Gal(b1-4)GlcNAc
# How it was run: as §1
# Gal(b1-4)Glc = target: Gal(b1-4)Glc
# How it was run: as §1
# Gal(b1-4)Glc6S = target: Gal(b1-4)Glc6S
# How it was run: as §1
# Gal(b1-4)GlcNAc = target: Gal(b1-4)GlcNAc
# How it was run: as §1
# [29] = target: Gal(b1-4)GlcNAc(a1-6)Gal(b1-4)GlcNAc
# How it was run: as §1
# Gal(b1-4)GlcNAc(b1-2)Man = target: Gal(b1-4)GlcNAc(b1-2)Man
# How it was run: as §1
# [30] = target: Gal(b1-4)GlcNAc(b1-2)Man(a1-3)Man(b1-4)GlcNAc(b1-4)GlcNAc
# How it was run: as §1
# [31] = target: Gal(b1-4)GlcNAc(b1-2)Man(a1-3)[Gal(b1-4)GlcNAc(b1-2)Man(a1-6)]Man(b1-4)GlcNAc(b1-4)GlcNAc
# How it was run: as §1
# [32] = target: Gal(b1-4)GlcNAc(b1-2)Man(a1-3)[Gal(b1-4)GlcNAc(b1-2)Man(a1-6)]Man(b1-4)GlcNAc(b1-4)[Fuc(a1-6)]GlcNAc
# How it was run: as §1
# [33] = target: Gal(b1-4)GlcNAc(b1-2)Man(a1-3)[Gal(b1-4)GlcNAc(b1-2)Man(a1-6)][Gal(b1-4)GlcNAc(b1-4)]Man(b1-4)GlcNAc(b1-4)[Fuc(a1-6)]GlcNAc
# How it was run: as §1
# [34] = target: Gal(b1-4)GlcNAc(b1-2)Man(a1-3)[Gal(b1-4)GlcNAc(b1-2)Man(a1-6)][GlcNAc(b1-4)]Man(b1-4)GlcNAc(b1-4)[Fuc(a1-6)]GlcNAc
# How it was run: as §1
# [35] = target: Gal(b1-4)GlcNAc(b1-2)Man(a1-3)[GlcNAc(b1-2)Man(a1-6)]Man(b1-4)GlcNAc(b1-4)GlcNAc
# How it was run: as §1
# [36] = target: Gal(b1-4)GlcNAc(b1-2)Man(a1-3)[GlcNAc(b1-4)][Gal(b1-4)GlcNAc(b1-2)Man(a1-6)]Man(b1-4)GlcNAc(b1-4)GlcNAc
# How it was run: as §1
# [37] = target: Gal(b1-4)GlcNAc(b1-2)Man(a1-3)[Man(a1-6)]Man(b1-4)GlcNAc(b1-4)GlcNAc
# How it was run: as §1
# [38] = target: Gal(b1-4)GlcNAc(b1-2)Man(a1-6)Man(b1-4)GlcNAc(b1-4)GlcNAc
# How it was run: as §1
# [39] = target: Gal(b1-4)GlcNAc(b1-2)Man(a1-6)[GlcNAc(b1-2)Man(a1-3)]Man(b1-4)GlcNAc(b1-4)GlcNAc
# How it was run: as §1
binder,measurement,setting,value
B1,glycan array binding signal (z-score),[1],0.113
same,glycan array binding signal (z-score),[2],0.366
same,glycan array binding signal (z-score),[3],0.05
same,glycan array binding signal (z-score),[4],-0.356
same,glycan array binding signal (z-score),[5],-0.361
same,glycan array binding signal (z-score),[6],-0.339
same,glycan array binding signal (z-score),[7],0.221
same,glycan array binding signal (z-score),[8],1.58
same,glycan array binding signal (z-score),[9],1.79
same,glycan array binding signal (z-score),[10],-0.391
same,glycan array binding signal (z-score),[11],-0.347
same,glycan array binding signal (z-score),[12],-0.333
same,glycan array binding signal (z-score),[13],-0.171
same,glycan array binding signal (z-score),[14],-0.399
same,glycan array binding signal (z-score),[15],-0.174
same,glycan array binding signal (z-score),[16],-0.253
same,glycan array binding signal (z-score),Gal(b1-3)GlcNAc6S,-0.395
same,glycan array binding signal (z-score),[17],-0.306
same,glycan array binding signal (z-score),[18],-0.217
same,glycan array binding signal (z-score),[19],0.9
same,glycan array binding signal (z-score),[20],0.067
same,glycan array binding signal (z-score),[21],-0.255
same,glycan array binding signal (z-score),[22],0.164
same,glycan array binding signal (z-score),[23],-0.146
same,glycan array binding signal (z-score),[24],-0.229
same,glycan array binding signal (z-score),[25],-0.356
same,glycan array binding signal (z-score),[26],-0.358
same,glycan array binding signal (z-score),Gal(b1-4)Gal,-0.047
same,glycan array binding signal (z-score),[27],-0.387
same,glycan array binding signal (z-score),[28],-0.382
same,glycan array binding signal (z-score),Gal(b1-4)Glc,-0.178
same,glycan array binding signal (z-score),Gal(b1-4)Glc6S,-0.162
same,glycan array binding signal (z-score),Gal(b1-4)GlcNAc,-0.346
same,glycan array binding signal (z-score),[29],-0.396
same,glycan array binding signal (z-score),Gal(b1-4)GlcNAc(b1-2)Man,-0.209
same,glycan array binding signal (z-score),[30],-0.272
same,glycan array binding signal (z-score),[31],-0.339
same,glycan array binding signal (z-score),[32],0.133
same,glycan array binding signal (z-score),[33],-0.254
same,glycan array binding signal (z-score),[34],-0.323
same,glycan array binding signal (z-score),[35],-0.348
same,glycan array binding signal (z-score),[36],-0.331
same,glycan array binding signal (z-score),[37],-0.258
same,glycan array binding signal (z-score),[38],-0.235
same,glycan array binding signal (z-score),[39],-0.258
